Assay results published in patent US20220403048A1, “BINDING MOLECULES TO ARGINASE II [ARG2]” (Cancer Research Technology Limited, priority 2019, published 2022).

Molecular target: T1, THP-1 lysate derived human trimeric ARG2 (Homo sapiens, UniProt P78540)
T1 construct: expressed in transfected cells; host or cells: THP-1 cells overexpressing human ARG2 (cell lysate)
T1 sequence (P78540 23-354): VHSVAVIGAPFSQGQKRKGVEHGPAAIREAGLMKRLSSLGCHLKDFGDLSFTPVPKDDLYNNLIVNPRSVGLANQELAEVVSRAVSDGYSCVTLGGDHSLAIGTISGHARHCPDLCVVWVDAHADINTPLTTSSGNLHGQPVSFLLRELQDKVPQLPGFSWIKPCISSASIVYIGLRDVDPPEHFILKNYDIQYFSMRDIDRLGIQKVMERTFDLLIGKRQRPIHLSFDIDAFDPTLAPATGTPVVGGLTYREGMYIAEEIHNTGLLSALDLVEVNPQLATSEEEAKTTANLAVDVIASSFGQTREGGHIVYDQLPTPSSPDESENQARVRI
Assay: ELISA binding to THP-1 lysate derived human ARG2
Conditions: biotinylated recombinant human IgG1, FIG. 6
Method: C0020187 and C0020065 IgGs were tested for their ability to bind to mammalian expressed human ARG2 produced in transfected THP-1 cells. Lysates of human ARG2 transfected THP-1 cells were prepared and binding to these lysates measured using an ELISA.
Cell lysates were prepared from THP-1 cells overexpressing human ARG2 and from wild type THP-1 cells. Between 600,000-1,000,000 cells were suspended in 1 ml tris-buffered saline (25 mM tris+150 mM sodium chloride in dH2O, pH 7.4) and cell lysates prepared using QIAshredders (QIAgen, UK; cat: 79654).
For the ELISA, maxisorp white plates (Nunc; cat: 437796) were coated overnight at 4° C. with rabbit anti-human ARG2 antibody (Abcam, ab137069) at 1 μg/ml in PBS. The next day, the plate was washed with PBS and blocked with casein blocker (Thermo Scientific, 37528). […]
The blocked ELISA plate was washed with PBS and 50 μl of the pre-incubation mixtures were transferred to the ELISA plate and incubated for 90 minutes at room temperature. […] Next, 100 μl PICO ELISA substrate (Thermo Scientific, 37070) was added to each well, the plate was incubated for 1 minute at room temperature in the dark before being read for luminescence using the Envision plate reader. Data were analysed using GraphPad Prism. […]

B1: C0020187: anti-ARG2 antibody, parent lead isolation clone, VH SEQ ID NO: 12, VL SEQ ID NO: 17 (antibody, listed as Homo sapiens, V domains shown)
VH: [about 100 residues not given here]LRADLGLYMDLWGRGTLVTVSS
VL: QSVLTQPPSVSAAPGQKVTISCSGSSSNIGNHYVSWYQQLPGTAPKLLIYDNSERPSGIPDRFSGSKSGTSATLGITGLQTGDEADYYCGTWDSSLSALVFGGGTKLTVL
modifications: C0020187
binding to THP-1 lysate derived human trimeric ARG2: strong binding
